# Experimental data published in PubChem BioAssay AID1671194 (National Center for Advancing Translational Sciences (NCATS), 2021).
# Out of some 140,000 compounds screened, about 240 (0.17%) were called active. Inconclusive results, whose numbers are uncertain, are shown with a selection of clear calls. The call rests on the fitted dose curve; in most records, active means well fitted inhibition curve with a large enough effect; inconclusive means small, poorly fitted or top-dose-only effect; inactive means no such curve, though single readings can be large or run the other way. Potencies beside an inconclusive call are fits to weak or partial responses and may not hold up.
# Assay: Primary qHTS assay for inhibitors of alpha-synuclein gene (SNCA) expression; further: nearly all actives have a fitted effect of over 45% in size
# Conditions: HEK-293 SNCA-luciferase knock-in, luminescence, 24 h; series mostly up to 57.2 µM
# Potency means the concentration at half of the fitted maximal effect; tags describe the fitted curve by direction and shape.
row,Structure (SMILES),Potency
1,O=C(NCC1CCCN(Cc2ncccn2)C1)c1ccc(-c2ccccc2)cc1 (stereo unspecified),"inconclusive: 39.8 µM [inhibitor, partial curve, poor fit]"
2,CC(C)Oc1ccc(CN2CCc3n[nH]c(=O)n3CC2)cc1,inactive
3,O=C(N[C@@H]1CN(c2ncccn2)C[C@H]1CO)c1ccoc1,inactive
4,CCOC(=O)Cc1ccc(NC(=O)N2CCC(CN3CCC(C)CC3)CC2)cc1,inactive
5,CCN(c1ccccc1)S(=O)(=O)c1nnc(NC(=O)C(C)Oc2ccccc2)s1 (stereo unspecified),"inconclusive: 7.94 µM [inhibitor, full curve, poor fit]"
6,O=C1CN(C(=O)c2ccc(S(=O)(=O)N3CCCC3)cc2)C(c2ccc(F)cc2)c2cc(F)ccc2N1 (stereo unspecified),"inconclusive: 31.6 µM [inhibitor, single point]"
7,CCc1cccc(NC(=O)c2sc3nc[nH]c(=O)c3c2C)c1,inactive
8,COCC(=O)N[C@@H]1CN(Cc2ccc(OC)cc2OC)C[C@H]1CO,"inconclusive: 8.91 µM [inhibitor, single point]"
9,CCOc1ccc(CCNC(=O)c2ccc(C)c(-n3c(C)nc4cccnc43)c2)cc1OCC,"inconclusive: 3.55 µM [inhibitor, partial curve, poor fit]"
10,O=C(c1ccsc1)N1CC(n2cc(-c3ccccc3)nn2)C1,"inconclusive: 1.41 µM [inhibitor, full curve]"
11,COCCNC(=O)c1nc(-c2ccsc2)c2ccccn12,inactive
12,COCCNC(=O)c1ccc2oc(-c3ccc(OC)nc3)nc2c1,inactive
13,Cc1ccc(-c2ccccc2CN2CCC(C(=O)NCC(F)(F)F)CC2)cc1Cl,"inconclusive: 39.8 µM [inhibitor, single point]"
14,O=C(c1cccc(Cl)c1)N1CCC(c2nc3c(nnn3Cc3ccc(F)cc3F)c(=O)[nH]2)CC1,"inconclusive: 39.8 µM [inhibitor, single point]"
15,Cn1cccc1CN1CCC2(C1)C(=O)Nc1ccccc12 (stereo unspecified),inactive
16,O=C(NCc1nnc2cc(-c3nc(C4CC4)no3)ccn12)C1CCC1,"inconclusive: 1.41 µM [inhibitor, full curve, poor fit]"
17,COC[C@@H]1CN(Cc2cccc(C#N)c2)C[C@H]1C(=O)N(C)C,inactive
18,CC(C)C(=O)N1CCCC(c2nn(C)c(=O)n2C(C)C)C1 (stereo unspecified),"inconclusive: 7.08 µM [inhibitor, full curve, poor fit]"
19,COc1ccc(Cn2nnc3c(=O)[nH]c(C4CCCN(C(=O)c5ccccc5Cl)C4)nc32)cc1OC (stereo unspecified),"inconclusive: 0.178 µM [inhibitor, partial curve, poor fit]"
20,CCCC(=O)N1Cc2ccccc2CC2(CCCCN2Cc2ccccn2)C1 (stereo unspecified),"inconclusive: 39.8 µM [inhibitor, single point]"
21,COc1cccc(S(=O)(=O)N2CCC3(CC2)CC(N2CCOCC2)CCO3)c1 (stereo unspecified),"inconclusive: 22.4 µM [inhibitor, single point]"
22,O=C1COc2ccc(Nc3ccccc3)nc2CN1CCOc1ccccc1,inactive

row,Structure (SMILES),Potency
1,COC(=O)N1CCCN(c2nc3ncccc3o2)CC1,inactive
2,Cc1nn(-c2ccc(C(C)C)cc2)c(C)c1[C@@H]1C=C[C@@H](NC(=O)NCc2ccccc2)C1,"inconclusive: 22.4 µM [inhibitor, single point]"
3,CCOC(=O)c1ccc(NC(=O)c2nc(S(=O)(=O)Cc3ccccc3)ncc2Cl)cc1,"inconclusive: 39.8 µM [inhibitor, single point]"
4,CN(C)c1cccc(-c2cnc(Nc3cccc(N[S+](C)(=O)[O-])c3)c3c2CCO3)c1,inactive
5,Cc1nnnn1-c1cccc(C(=O)N2CCCC3(CC2)CNC(=O)O3)c1 (stereo unspecified),"inconclusive: 8.91 µM [inhibitor, single point]"
6,COC(=O)c1cc(Cl)c(NC(=O)/C=C/c2ccc(Cl)cc2Cl)cc1OC,"inconclusive: 35.5 µM [inhibitor, partial curve, poor fit]"
7,COc1ccc(Nc2ccnc(N3CCCC(C(=O)N4CCC(c5ccccc5)CC4)C3)n2)cc1 (stereo unspecified),"inconclusive: 25.1 µM [inhibitor, single point]"
8,Cc1cc2ncc(C(=O)NCc3cccc(Cl)c3)cn2n1,"inconclusive: 25.1 µM [inhibitor, single point]"
9,CCN(CC)Cc1cnc2c(C(=O)N(C)Cc3ccccc3C)cnn2c1,"inconclusive: 15.8 µM [inhibitor, partial curve]"
10,CC(Sc1ncc(S(=O)(=O)c2ccc(C(C)C)cc2)c(N)n1)C(=O)Nc1ccccc1 (stereo unspecified),"inconclusive: 25.1 µM [inhibitor, partial curve, poor fit]"
11,CCOC(=O)c1cc(-c2ccc(F)cc2)n(CCC(=O)Nc2ccccc2OC)c1C,"inconclusive: 11.2 µM [inhibitor, partial curve]"
12,COc1ccc(N(CC(=O)N2CCN(c3cc(C)ccc3C)CC2)S(=O)(=O)c2c(C)noc2C)cc1,"inconclusive: 31.6 µM [inhibitor, single point]"
13,Cc1nc(-c2ccc(Cl)cc2)n(Cc2cccc(C(F)(F)F)c2)c(=O)c1CCO,inactive
14,Cc1nn2c(c1-c1ccccc1Oc1ccccc1)N(C(=O)C(C)C)CCC2,"inconclusive: 3.98 µM [inhibitor, full curve]"
15,Cn1c(CN2CCOCC2)nnc1C1CCCN(C(=O)CNC(N)=O)C1 (stereo unspecified),"inconclusive: 5.62 µM [inhibitor, single point]"
16,CC(C)c1ccc(C2c3c(-c4ccccc4O)n[nH]c3C(=O)N2CCc2ccccc2)cc1 (stereo unspecified),"inconclusive: 35.5 µM [inhibitor, single point]"
17,CCN1CCC(N2CCC(Oc3ccccc3-c3nc(-c4ccncc4)no3)C2)CC1 (stereo unspecified),"inconclusive: 28.2 µM [inhibitor, single point]"
18,Cc1cc(=O)n(CC(=O)Nc2ccc(C)c(Cl)c2)c(N2CCC(C)CC2)n1,"inconclusive: 25.1 µM [inhibitor, single point]"
19,CCn1nc(C)c(-c2cc(C(=O)N3CCC(CCOc4ccccc4)C3)no2)c1C (stereo unspecified),inactive
20,CC1CCN(c2ccc(CNC(=O)CC3CCOCC3)cc2)CC1,"inconclusive: 22.4 µM [inhibitor, single point]"
21,COc1ccc(CN2CCC(CO)(CN3CCCC3)CC2)cc1C,"inconclusive: 12.6 µM [inhibitor, partial curve, poor fit]"
22,COc1ccccc1OCCNC(=O)CCc1cc2cc(C)ccc2[nH]c1=O,"inconclusive: 8.91 µM [inhibitor, single point]"

row,Structure (SMILES),Potency
1,COc1ccc(-c2cc3c(=O)n(CCNC(=O)c4ccc(C)c(F)c4)ccn3n2)cc1,inactive
2,Cc1cccc(C(=O)Nc2ccc(N3CCC(CCN4CCOCC4)CC3)c(C(=O)O)c2)c1,"inconclusive: 7.08 µM [inhibitor, single point]"
3,COc1ccccc1CNc1ncnc2ccc(-c3ccc(N(C)C)cc3)cc12,"inconclusive: 39.8 µM [inhibitor, single point]"
4,O=C(CN1C(=O)NC(c2ccc(Cl)cc2)C2=C1COC2=O)Nc1cccc(Br)c1 (stereo unspecified),"inconclusive: 39.8 µM [inhibitor, single point]"
5,CN(C)c1cccc(NC(=O)Cc2c[nH]c3ncc(-c4ccccc4)cc23)c1,"inconclusive: 56.2 µM [inhibitor, single point]"
6,CCOc1ccc(NC(=O)CN2C(=O)C(c3ccccc3)=NC23CCCCCC3)cc1,"inconclusive: 28.2 µM [inhibitor, partial curve]"
7,O=C(Nc1ccc(Cl)cc1Cl)c1cn2c(n1)CN(C(=O)c1ccccc1F)CC2,"inconclusive: 17.8 µM [inhibitor, partial curve, poor fit]"
8,Cc1cc(C[C@@H]2COC[C@@H]2NC(=O)c2cc(C)oc2-c2ccccc2)on1,inactive
9,COc1ccc(-c2cc(N3CCCN(C(=O)Cc4ccc(Cl)cc4)CC3)n[nH]2)cc1,inactive
10,O=C(Nc1cccc(OC(F)(F)F)c1)[C@@H]1COCC(=O)N1Cc1ccc(F)cc1,inactive
11,O=C(NCCN1CCOCC1)c1cn2cc(-c3cccc(C(F)(F)F)c3)sc2n1,"inconclusive: 39.8 µM [inhibitor, single point]"
12,COc1cc(OC)cc(-c2nc3ccc(-c4ccc(OC)c(OC)c4OC)cc3o2)c1,inactive
13,O=C(c1ccc(F)cc1)N1CCC2(CC1)Cc1ccccc1NC2=O,"inconclusive: 28.2 µM [inhibitor, single point]"
14,CC(C)C1=NOC2(CCCN(C(=O)c3ccc4c(c3)OCO4)C2)C1 (stereo unspecified),inactive
15,CC(=O)N1CCCc2cc(S(=O)(=O)N3CCCC(C(=O)NCc4ccc(Cl)cc4)C3)ccc21 (stereo unspecified),"inconclusive: 28.2 µM [inhibitor, partial curve, poor fit]"
16,Cc1nccc(N2CCC(Oc3cnc4c(ccn4CCN[S+](C)(=O)[O-])c3)CC2)n1,"inconclusive: 5.01 µM [inhibitor, full curve, poor fit]"
17,CCCn1ccnc1CN1CCCC12CCN(c1ccc(C(F)(F)F)cn1)CC2,inactive
18,O=C(Nc1cccc(Cl)c1)[C@@H]1COCC(=O)N1Cc1ccccc1,"inconclusive: 4.47 µM [inhibitor, single point]"
19,CCc1nc2c(c(-c3ccc(OC)cc3)n1)CCN([S+](=O)([O-])c1ccccc1)CC2,"inconclusive: 11.2 µM [inhibitor, partial curve, poor fit]"
20,O=C(c1ccc(-c2ccc(N3CCSCC3)nc2)cc1)N1CCCCC1,inactive
21,COc1cccc(C(=O)N2CCc3nc(-c4ccccc4)nc(-c4ccc(Cl)cc4)c3C2)c1,inactive
22,CCCNC(=O)C(NC(=O)c1ccc(OC)cc1)C1CCN(C(=O)c2ccc3c(c2)OCO3)CC1 (stereo unspecified),"inconclusive: 39.8 µM [inhibitor, single point]"
